Data published in PMC4336329 (PLoS ONE, 2015).
The campaign covered roughly 310,000 compounds. About 2,200 (0.71%) showed an effect of 50% or more. The effect is printed as a negative number. The list shows a part of the results.

molecular target: human ether-à-go-go-related gene (hERG) potassium channel (human, UniProt Q12809); experiment: primary screen, population patch clamp on CHO cells stably expressing hERG
Sequence (Q12809 whole entry, looked up): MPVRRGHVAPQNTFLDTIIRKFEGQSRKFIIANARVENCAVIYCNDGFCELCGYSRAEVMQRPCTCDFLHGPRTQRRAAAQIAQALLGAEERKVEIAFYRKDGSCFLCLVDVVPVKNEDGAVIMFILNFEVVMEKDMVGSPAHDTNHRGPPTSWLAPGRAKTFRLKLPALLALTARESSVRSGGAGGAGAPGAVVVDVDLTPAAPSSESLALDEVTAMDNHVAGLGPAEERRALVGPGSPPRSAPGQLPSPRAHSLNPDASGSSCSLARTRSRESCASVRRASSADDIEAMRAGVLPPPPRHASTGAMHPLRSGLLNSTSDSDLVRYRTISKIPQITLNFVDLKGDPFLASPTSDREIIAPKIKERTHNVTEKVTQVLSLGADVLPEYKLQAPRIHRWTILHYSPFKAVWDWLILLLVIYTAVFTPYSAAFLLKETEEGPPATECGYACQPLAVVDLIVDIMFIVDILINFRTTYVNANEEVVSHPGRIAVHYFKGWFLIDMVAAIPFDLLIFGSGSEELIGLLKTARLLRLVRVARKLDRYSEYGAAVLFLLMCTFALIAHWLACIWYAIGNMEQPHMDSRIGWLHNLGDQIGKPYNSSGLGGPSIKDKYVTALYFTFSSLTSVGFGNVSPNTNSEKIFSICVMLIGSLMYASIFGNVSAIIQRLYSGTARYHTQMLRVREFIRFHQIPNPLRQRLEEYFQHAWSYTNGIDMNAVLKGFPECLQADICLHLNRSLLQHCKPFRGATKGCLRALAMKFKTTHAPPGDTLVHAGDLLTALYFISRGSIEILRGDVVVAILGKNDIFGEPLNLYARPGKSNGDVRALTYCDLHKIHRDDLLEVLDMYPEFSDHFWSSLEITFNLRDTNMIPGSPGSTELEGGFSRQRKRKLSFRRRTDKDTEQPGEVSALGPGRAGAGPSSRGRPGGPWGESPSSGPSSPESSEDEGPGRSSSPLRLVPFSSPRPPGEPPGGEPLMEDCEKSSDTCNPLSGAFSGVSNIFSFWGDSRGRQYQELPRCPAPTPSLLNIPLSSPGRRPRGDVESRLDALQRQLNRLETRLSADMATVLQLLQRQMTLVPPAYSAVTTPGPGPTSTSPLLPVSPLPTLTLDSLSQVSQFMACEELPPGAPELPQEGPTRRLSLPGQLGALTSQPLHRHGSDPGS

Row | Structure (SMILES) | hERG current change (%, negative = inhibition) at 1uM [%]
1 | CCS(=O)(=O)C1=NN2C(=N)/C(=C\c3ccc(OC(=O)c4ccco4)cc3)C(=O)N=C2S1 | 19.4
2 | COc1ccc(C(=O)c2ccc(Cl)cc2)c2ccccc12 | 6.46
3 | CCOCCCNC(=O)C1CCC(=O)N1CCc1ccccc1 (stereo not drawn) | 15.8
4 | CNS(=O)(=O)c1ccc(NC(=O)C(CCSC)NC(N)=O)cc1 (stereo not drawn) | 15.1
5 | C/C(=N\NS(=O)(=O)c1cccc([N+](=O)[O-])c1)c1cccnc1 | 7.3
6 | CCOC(=O)C1=C(C)NC2=C(C(=O)CC(C)(C)C2)C1c1ccc(N(C)C)cc1 (stereo not drawn) | 12.6
7 | CC(NC(=O)c1ccco1)C(c1cccs1)N1CCN(c2ccc(F)cc2)CC1 (stereo not drawn) | 6.94
8 | CC(C)(C)n1nnnc1C(c1ccc(F)cc1)N(Cc1ccc(F)cc1)Cc1ccco1 (stereo not drawn) | 14.4
9 | O=C1NC(=S)SC1=C1CCCC1 | 11.8
10 | CC(C)CC(=O)N=C1SC2CS(=O)(=O)CC2N1Cc1ccccc1 (stereo not drawn) | 11.2
11 | O=C(CCCSc1nc2ccccc2s1)NC1=NCCS1 | 10.8
12 | Cl.OC(CCN1CCCC1)(c1ccccc1)C1CCCCC1 (stereo not drawn) | 1.02
13 | COc1ccc(S(=O)(=O)N2CCN(C/C=C/c3ccccc3)CC2)cc1F | 8.5
14 | CC(C)NC(=S)N1CCN(S(=O)(=O)c2cccc(C(F)(F)F)c2)CC1 | 11.7
15 | CCOC(=O)N1CCC(=NNC(=O)c2ccccc2F)CC1 | -1.29
16 | CC1=C(C)CC(C(=O)NCc2ccccc2F)C(C(=O)O)C1 (stereo not drawn) | 15.8
17 | COc1ccc(NC(=S)N2CCN(S(C)(=O)=O)CC2)cc1OC | 4.18
18 | Cc1cc(S(=O)(=O)N2CCCC2)ccc1OCC(=O)N1CCC(C(N)=O)CC1 | 20
19 | CC(=O)O.O=c1/c(=C\c2cccc(O)c2)sc2nc(-c3ccccc3)c(-c3ccccc3)n12 | 13.9

Row | Structure (SMILES) | hERG current change (%, negative = inhibition) at 1uM [%]
20 | CCOC(=O)c1c(N2C(=O)Nc3ccccc3N2O)sc2c1CCCCC2 | 0.728
21 | CCOC(=O)c1cccc(NC(=O)CSc2nnc(C3CCCCC3)n2C)c1 | 1.33
22 | CC(OC(=O)/C=C/c1ccccc1Cl)C(=O)NC1CCCCC1C (stereo not drawn) | 0.403
23 | O=[N+]([O-])c1cccc(S(=O)(=O)Nc2ccc(Cc3ccncc3)cc2)c1 | -4.55
24 | CN1CCc2nc(NC(=O)c3cccc(OC(F)F)c3)sc2C1 | -1.52
25 | COc1ccc(N(CC(=O)Nc2cc(OC)ccc2OC)S(=O)(=O)c2c(C)nn(C)c2C)cc1 | 12.7
26 | O=C(c1cccc(F)c1)n1nnc2ccccc21 | 17.4
27 | O=C(CSc1ncn[nH]1)c1ccc2c(c1)OCCO2 | 2.66
28 | Cc1c(CCO)c(=O)n(C)n1C(=O)c1ccc(F)cc1 | 13.2
29 | COc1ccc(C2=NO[C@H]3C[C@](C(=O)NC(C)C)(S(=O)(=O)c4ccccc4)C[C@@H]23)cc1 | 12
30 | O=C(NNC(=S)NC(=O)c1cn(-c2ccccc2)nc1-c1ccccc1)c1ccncc1 | 8.41
31 | O=C(CSc1nc2ccccc2[nH]1)c1ccc(Cl)s1 | 14.5
32 | COc1ccc(Oc2ncc(CN3CCN(c4ccccc4)CC3)s2)cc1 | 10.3
33 | C/C(Cl)=C/CN1C(=O)C2C3C=CC(C3)C2C1=O (stereo not drawn) | -3.44
34 | COC(=O)[C@H](C)NC(=O)N1CCC(Cc2ccccc2)CC1 | 0.436
35 | CC1CCc2cc(F)ccc2N1C(=O)c1cccnc1 (stereo not drawn) | 19.6
36 | CC(=O)N1CCC2(CC1)C(C#N)=C(N)Oc1n[nH]c(C)c12 | 11
37 | COc1ccccc1NC(=O)CN1CCN(CC(=O)Nc2ccccc2Cl)CC1 | 7.43
38 | COc1ccc(O)c(C(=O)c2cnn(-c3ccc(Cl)cc3)c2)c1 | 16

Row | Structure (SMILES) | hERG current change (%, negative = inhibition) at 1uM [%]
39 | Cc1cc(C)nc(NS(=O)(=O)c2ccc(NC(=O)c3cc(-c4ccccc4)nc4ccccc34)cc2)n1 | 0.933
40 | O=c1oc2ccccc2c(NC2CCCCC2)c1NS(=O)(=O)c1ccc(F)cc1 | 2.77
41 | Cn1c(=NC(=O)C2CC2)sc2cc(F)cc(F)c21 | 10.1
42 | CC(C)(C)OC(=O)N1CCN(C(=O)c2[nH]cnc2C(=O)NCC(=O)OCc2ccccc2)CC1 | 7.21
43 | Cc1ccc(CNC(=S)NC2CCC(C(C)(C)C)CC2)cc1 (stereo not drawn) | 15.4
44 | O=C1CCCN2N=C(SCC(=O)Nc3nc4ccccc4s3)SC2=N1 | 5.01
45 | CCOC(=O)c1ccc(NC(=O)CCS(=O)(=O)c2cccc3nonc23)cc1 | 9.65
46 | Cc1ccc(S(=O)(=O)N2CCN(Cc3nc4ccccc4n3C)CC2)cc1 | -0.98
47 | COCc1cnc(C)nc1N | 10.4
48 | O=C(c1ccc(N2CCN(CCO)CC2)nc1)N1CCOCC1 | 8.82
49 | COc1ccc(S(=O)(=O)N2CCN(C)CC2c2ccccc2)cc1.Cl (stereo not drawn) | 9.94
50 | COC(=O)c1c(NC(=O)COC(=O)c2ccc(Cl)nc2)sc(C)c1C | 15.9
51 | O=C(O)C1C2C=CC(C2)C1C(=O)NCCc1cccc(Cl)c1 (stereo not drawn) | 10.9
52 | CCOC(=O)N1CCN(C(=O)c2c[nH]c3ccc(S(=O)(=O)N(C)c4ccccc4C)cc3c2=O)CC1 | 5.17
53 | c1ccc(CSc2ccc(-c3cccnc3)nn2)cc1 | 1.62
54 | CCCn1c(SCC(=O)NCC2CCCO2)nc2c1c(=O)n(C)c(=O)n2C (stereo not drawn) | 6.61
55 | CC1=C(OC(=O)C(C)(C)C)C(C)(C)C(c2ccccc2)OC1=O (stereo not drawn) | -0.619
56 | Cc1ccc(-c2csc3ncn(Cc4ccc(C(=O)O)cc4)c(=O)c23)cc1C | 3.85
57 | N#Cc1cc2c(nc1Cl)CCC2 | 16.7
